According to PubChem BioAssay (Tox21):
Results filed as inconclusive are left out. Calls come from the whole dose curve; as a rule, active = well fitted curve in the direction sought with a large enough effect in the repeat runs; inconclusive = weak or mixed curves; inactive = no such curve, though single readings can be large; an effect the other way counts as inactive or inconclusive. Some structures have more than one record in an assay (separate samples or runs), and their calls can disagree. Some entries of the source have several records that differ or are many. This is not the full list of results. The source may hold further records. The values listed for one entry repeat one measurement across runs, samples, wells, individuals or studies. Marks in square brackets tell the records apart. Letters hold for one entry only.

Key:
[1] = qHTS assay to identify small molecule antagonists of the thyroid receptor (TR) signaling pathway (AID 743065); note: nearly all actives have a fitted effect of over 55% in size
Outline: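 GH3.TRE-Luc rat pituitary cells (two TREs driving luciferase) were dosed with compound, then stimulated with 1 nM T3 (final) for 23.5 h at 37 C. ONE-Glo luminescence was the read-out, with CellTiter-Fluor fluorescence as the cytotoxicity counter-screen.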

[2] = A CellTox Green Cytotoxicity Assay to monitor cytotoxicity in HEK293 cells - 24 hour (AID 1224875); note: nearly all actives have a fitted effect of over 45% in size
Outline: (§1)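 Fluorescence from a DNA-binding dye excluded by viable cells was measured repeatedly in the same HEK293 wells (600 cells/well) during continuous compound exposure at 37 C. Each assay gives one read point: 0, 8, 16, 24, 32 or 40 h.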

[3] = A CellTox Green Cytotoxicity Assay to monitor cytotoxicity in HEK293 cells - 16 hour (AID 1224888); note: nearly all actives have a fitted effect of over 35% in size
Outline: as §1
Potency is the fitted concentration of half-maximal effect.

Compound	Potency [1]	Potency [2]	Potency [3]
Cc1ccc(C(C)C)c(O)c1	inactive [sample A] and active: 54.5 µM [sample B]	–	–
CCCCCCCCCCO	–	active: 24.6 µM [sample A] and inactive [sample B]	active: 43.8 µM [sample A] and inactive [sample B]
